Results from paper PMC4336329 (PLoS ONE, 2015).
Among all 310,000 compounds or so, about 14,000 (4.5%) showed an effect of 50% or more. Effects have a minus sign here. This is one part of the list.

molecular target: human ether-à-go-go-related gene (hERG) potassium channel (human, UniProt Q12809); experiment: primary screen, population patch clamp on CHO cells stably expressing hERG
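Note: peak tail current of the secondary pulse compared with the same well before compound.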

Chain of human ether-à-go-go-related gene (hERG) potassium channel (Q12809 whole entry, looked up): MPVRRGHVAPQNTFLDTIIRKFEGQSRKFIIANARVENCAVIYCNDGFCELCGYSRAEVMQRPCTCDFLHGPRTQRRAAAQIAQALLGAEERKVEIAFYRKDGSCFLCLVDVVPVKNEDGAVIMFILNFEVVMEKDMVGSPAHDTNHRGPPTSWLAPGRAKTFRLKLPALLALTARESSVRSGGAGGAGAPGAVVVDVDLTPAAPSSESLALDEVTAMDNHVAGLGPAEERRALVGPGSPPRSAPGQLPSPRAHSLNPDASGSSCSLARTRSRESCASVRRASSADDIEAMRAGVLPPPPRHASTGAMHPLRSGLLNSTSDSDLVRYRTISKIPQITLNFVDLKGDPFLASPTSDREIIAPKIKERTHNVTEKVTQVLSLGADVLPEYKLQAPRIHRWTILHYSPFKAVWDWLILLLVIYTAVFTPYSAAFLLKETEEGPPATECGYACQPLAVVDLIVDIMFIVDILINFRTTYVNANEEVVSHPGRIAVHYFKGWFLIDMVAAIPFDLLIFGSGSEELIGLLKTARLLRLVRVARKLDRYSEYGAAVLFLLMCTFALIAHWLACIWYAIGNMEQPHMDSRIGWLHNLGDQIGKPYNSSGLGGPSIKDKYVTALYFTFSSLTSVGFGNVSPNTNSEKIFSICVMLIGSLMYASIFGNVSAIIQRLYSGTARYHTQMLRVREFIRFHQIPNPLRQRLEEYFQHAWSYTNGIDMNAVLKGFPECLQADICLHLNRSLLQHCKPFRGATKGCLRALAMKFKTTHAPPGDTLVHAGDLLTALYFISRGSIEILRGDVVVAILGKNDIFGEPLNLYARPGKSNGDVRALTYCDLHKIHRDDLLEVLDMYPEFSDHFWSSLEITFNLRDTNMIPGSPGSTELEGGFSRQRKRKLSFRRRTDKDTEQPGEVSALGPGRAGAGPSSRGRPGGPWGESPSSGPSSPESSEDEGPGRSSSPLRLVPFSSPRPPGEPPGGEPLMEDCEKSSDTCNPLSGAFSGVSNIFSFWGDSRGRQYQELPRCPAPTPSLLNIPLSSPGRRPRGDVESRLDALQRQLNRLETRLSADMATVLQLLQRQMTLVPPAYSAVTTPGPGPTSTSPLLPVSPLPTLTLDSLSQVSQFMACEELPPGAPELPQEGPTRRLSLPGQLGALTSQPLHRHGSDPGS

Structure (SMILES)	hERG current change (%, negative = inhibition) at 10uM
CN(Cc1ccc(F)cc1Cl)S(=O)(=O)c1cccs1	-62%
Cc1nn(-c2ccccc2[N+](=O)[O-])c(=O)c2ccccc12	9.2%
O=C(Nc1ncccc1O)c1ccc2c(c1)OCO2	3.08%
O=C1NC(=O)N(CCNc2ncc(C(F)(F)F)cc2Cl)C(=O)C1/C=N/OCc1c(F)cccc1Cl (stereo not drawn)	-1.19%
Br.Cc1ccc(C)c(C(=O)CN2C3=NCCCN3c3ccccc32)c1	-69.2%
Cc1ccc(S(=O)(=O)/N=C(\Nc2cccc(C)c2)Nc2nc(C)cc(C)n2)cc1	17.1%
Cc1cc2nnc(SCC(=O)Nc3ccc(Cl)cc3)n2c(N)n1	-6.76%
CCOCC(O)CNC(=O)c1ccc2nc(Cc3ccc(OC)c(OC)c3)oc2c1 (stereo not drawn)	21.8%
CN(C)C(=O)COC(=O)c1ccccc1OCC(=O)Nc1ccc(SC(F)F)cc1	-51.8%
NNC(=O)C1COc2cc3ccccc3cc2O1 (stereo not drawn)	7.85%
CCOC(=O)c1ccc(NC(=S)NN)cc1	20%
Cc1cc(Cn2nc(-c3ccccc3)cc2C(=O)NCc2cccs2)on1	-19.7%
CCc1nn(CC(=O)NCCCN(C)C2CCCCC2)c(=O)c2cc3occc3n12	-1.82%
COc1c(CC=C(C)C)c(O)cc2oc(=O)c3c4ccc(O)cc4oc3c12	4.94%
CCNc1ccccc(-c2ccc3ccccc3n2)c1=O	-26.4%
Cn1c(N)c(C(=O)COC(=O)CCC(=O)c2ccc(F)cc2)c(=O)n(C)c1=O	-25.4%
CCCC(=O)N(Cc1cc(=O)[nH]c2ccccc12)c1ccccc1OC	-10.9%
COc1ccc(-n2c(=O)c3c4c(sc3n(CC(=O)Nc3cc(C)[nH]n3)c2=O)CCC4)c(OC)c1	-6.64%
O=C(NCc1nnnn1-c1ccc(F)c(F)c1)c1ccc2ccccc2c1	-38.8%
O=C(Nc1cccc2ccccc12)N1CCC2(CC1)OCCO2	15%
COc1ccc2oc(C(=O)OCC(=O)N3CC(C)OC(C)C3)c(C)c2c1 (stereo not drawn)	-0.998%
CSc1nc(C=Nc2ccccc2Cl)c(O)n1Cc1cccc(Cl)c1	12.4%
COc1ccc(/C(C)=N/Nc2cc(C(F)(F)F)ccc2Cl)c(OC)c1	4.1%
O=c1c2c3c(sc2nc2n1CCCC2)CCC3	-9.34%
